Screen size: about 150,000 compounds; about 540 (0.36%) showed an effect of 50% or more. The list shows a part of the results.

The assay concerns Plasmodium falciparum. Kind of assay: Primary screen in NF54 nanoGlo assay, in single point, at 2uM, 72h; a lower Z score goes with more inhibition. It is filed as functional, Erythrocyte. The settings on record: timepoint 72 hour.
For the molecule `Cc1cccc(CNS(=O)(=O)c2cc(C(=O)N3CCCCCC3)cs2)c1`, the “% Inhibition” value is recorded as -8% and the Z score turned out to be 1.5.

`Cc1ccc(S(=O)(=O)N2CC(OC[C@H]3CCOC3)C2)cc1Cl`: the “% Inhibition” value was -22% and the Z score is 3.41.

Regarding `CCCn1cc(C(=O)N(C)Cc2ccc(C)o2)c(C)n1`, the “% Inhibition” value worked out at 0% and the Z score was -0.08.

For the molecule `COc1ccc(-c2noc(C(C)OCC3CCCCO3)n2)cc1OC` (centres undefined), the “% Inhibition” value was -8% and the Z score is on record as 1.09.

For `CN1CCN(c2ccccc2NC(=O)c2cnn(C)c2)CC1`, the “% Inhibition” value is 0% and the Z score was determined as 0.05.

Regarding `CC12CC(CN1c1ccc(S(C)(=O)=O)cc1)C2`, the “% Inhibition” value was -12% and the Z score is given as 1.06.

For `CN(CCC(=O)N(C)C)Cc1nccn1CC(F)(F)F`, the “% Inhibition” value is -15% and the Z score stood at 2.75.

Take `O=C(c1ccsc1)N1CCN(C(=O)c2ccc3nccn3c2)CC1`: the “% Inhibition” value is on record as -13% and the Z score is 1.99.

Take `CC1C(N(C)C)CCN1C(=O)c1ccn(C(C)C)n1` (centres undefined): the “% Inhibition” value is listed as -18% and the Z score was 1.98.

As to `Cc1nn(C)c(Cl)c1Cc1noc(C[C@H](C)n2ccnc2)n1`, the “% Inhibition” value was -4% and the Z score is 0.58.

As for `Cc1nc(CS(=O)(=O)CC2CCCCC2)sc1C`, the “% Inhibition” value is listed as -11% and the Z score is 1.75.

For the molecule `COc1cccc(N2CCN(C(=O)[C@H](C)N3Cc4ccccc4C3=O)CC2)c1`, the “% Inhibition” value was -14% and the Z score is 1.79.

In the case of `CCS(=O)(=O)N1CCC(C(=O)N2CCC[C@H](C(C)C)CC2)CC1`, the “% Inhibition” value is on record as -1% and the Z score is 0.08.

As for `Cc1cc(CCNC(=O)N2CC3(CC=CC3)[C@@H]2C(C)C)on1`, the “% Inhibition” value was -17% and the Z score is reported as 1.52.

On to `Cc1ccccc1S(=O)(=O)N(CCCc1ccccc1)CC(=O)N1CCNCC1`, for which the “% Inhibition” value is on record as 3% and the Z score is -0.34.

For the molecule `Cc1ccc(Oc2cccc(NC(=O)c3ccc(F)cc3F)c2)nn1`, the “% Inhibition” value is 12% and the Z score is -1.6.

Turning to `COc1ccc(-c2coc3ccc(OCC(N)=O)cc23)cc1`, the “% Inhibition” value was -25% and the Z score is 3.26.

In the case of `Cc1cc(C)c(CN[C@@H](C)CC(N)=O)c(C)c1`, the “% Inhibition” value turned out to be 2% and the Z score is listed as -0.25.

For `O=C1c2ccccc2C(=O)N1C[C@H](O)COc1cccc2ccccc12`, the “% Inhibition” value is -11% and the Z score was 1.42.

Take `Cc1cc(NC(=O)CNC2(c3cccc(Cl)c3)CC2)on1`: the “% Inhibition” value is 4% and the Z score was -0.52.

Consider `Cc1ccc(C)n1CCN1CCN(C(=O)C[C@@H]2N=C(O)c3ccccc3NC2=O)CC1`, for which the “% Inhibition” value is -3% and the Z score came out at 0.43.

As for `Cc1noc(COCC(=O)Nc2cc(-c3cccc(F)c3F)n[nH]2)n1`, the “% Inhibition” value is 5% and the Z score was -0.53.

On to `O=C(OCCF)N1CCOc2c1cccc2C(F)(F)F`, for which the “% Inhibition” value is -1% and the Z score amounted to 0.14.

In the case of `O=S(=O)(c1ccc2c(c1)CCC2)N1CCC[C@H](Cn2c(C3CC3)nc3cccnc32)C1`, the “% Inhibition” value is reported as -4% and the Z score came out at 0.56.

Regarding `Cc1ccc(S(=O)(=O)/N=C(\CN2CCCC2)N2CCCCC2)cc1`, the “% Inhibition” value is reported as -18% and the Z score is 2.43.

For the molecule `O=C(CC1CC1)N[C@@H](Cn1nccn1)c1ccccc1`, the “% Inhibition” value is on record as -7% and the Z score is given as 1.21.

As for `CCS(=O)(=O)CCNC(=O)c1nc(C)sc1C`, the “% Inhibition” value is on record as -7% and the Z score is 0.6.

On to `CCNc1ccnc(N2CCN(CC(=O)OC)C(=O)C2)n1`, for which the “% Inhibition” value is on record as -3% and the Z score is listed as 0.57.

As for `CCc1cc(N2CCC[C@H]2C(=O)N(C)C)nc(-c2ccncc2)n1`, the “% Inhibition” value was found to be 17% and the Z score is -1.52.

For `COc1ccc(N[C@H]2CCCN(c3ncncc3C(C)C)C2)cc1OC`, the “% Inhibition” value was found to be 2% and the Z score is recorded as -0.36.

As for `CCC1CCN(C(=O)c2sc3ncccc3c2N)CC1`, the “% Inhibition” value was -7% and the Z score is on record as 0.79.

Take `N#Cc1cnc2c(Cl)cccc2c1NCC1(CO)CCOCC1`: the “% Inhibition” value is -1% and the Z score is listed as 0.06.

`CCC1CN(Cc2csc(COc3ccc(Cl)cc3)n2)CCC1N` (centres undefined): the “% Inhibition” value is on record as -3% and the Z score is 0.27.

For `O=C(Cc1noc2ccccc12)Nc1ccc(-c2cc[nH]n2)cc1`, the “% Inhibition” value was -7% and the Z score is on record as 1.06.

As for `Cc1nc2cc(N[C@@H](C(=O)N3CCCCC3)c3ccccc3)ccc2o1`, the “% Inhibition” value is given as -36% and the Z score was found to be 4.27.

On to `O=C1NC2(CCCCC2)C(=O)N1Cc1nc2ccccc2o1`, for which the “% Inhibition” value was -8% and the Z score worked out at 1.52.

For the molecule `C[C@H]1COCCN1C(=O)c1nc(NCc2ccco2)ncc1Cl`, the “% Inhibition” value amounted to 31% and the Z score is -2.76.

Take `C[C@@H](C(=O)Nc1ccccc1NCC1CCCCC1)n1cncn1`: the “% Inhibition” value is on record as -18% and the Z score is given as 2.03.

Turning to `O=C(NCCn1ccc(-c2cccs2)n1)c1ccc(S(=O)(=O)N2CCOCC2)cc1`, the “% Inhibition” value was -22% and the Z score was found to be 2.79.

Take `NC(=O)COc1ccc([C@H]2CC(=O)Nc3cccc4c3c2cn4Cc2cccc(F)c2)cc1`: the “% Inhibition” value is reported as -10% and the Z score is listed as 1.28.

Regarding `O=C(c1ccno1)N1CCOC[C@H](Oc2cnccn2)C1`, the “% Inhibition” value is given as 20% and the Z score is -2.38.

Regarding `CC1CN(C(=O)Nc2ccccc2OC2CCOC2)C(C)CN1Cc1ccccc1` (centres undefined), the “% Inhibition” value is listed as 2% and the Z score is -0.16.

(Values after ChEMBL document CHEMBL4888484, “Replenishing the malaria drug discovery pipeline: Screening and hit evaluation of the MMV Hit Generation Library 1 (HGL1) against asexual blood stage Plasmodium falciparum ,using a nano luciferase reporter read-out” (2022).)
